In PubChem BioAssay (NCATS):
Results filed as inconclusive are left out. The call rests on the fitted dose curve. Where a structure was tested more than once in an assay, its records may differ in their call. A number of entries come with more than one value. Only these are listed. There may be further records. Values given together repeat one measurement (runs, samples, wells, individuals or studies). Records carry a tag for their origin. Letters count within one entry.

The molecules below were run against Estrogen receptor (Homo sapiens) (UniProt P03372) (assay: qHTS assay for small molecule agonists of estrogen receptor alpha signaling (AID 588514; further: nearly all actives have a fitted effect of over 70% in size)). Conditions: ER-alpha-UAS-bla HEK293, beta-lactamase ratio, 18 h; series mostly up to 76.8 µM.
Sequence of UniProt P03372 (P03372 whole entry, looked up): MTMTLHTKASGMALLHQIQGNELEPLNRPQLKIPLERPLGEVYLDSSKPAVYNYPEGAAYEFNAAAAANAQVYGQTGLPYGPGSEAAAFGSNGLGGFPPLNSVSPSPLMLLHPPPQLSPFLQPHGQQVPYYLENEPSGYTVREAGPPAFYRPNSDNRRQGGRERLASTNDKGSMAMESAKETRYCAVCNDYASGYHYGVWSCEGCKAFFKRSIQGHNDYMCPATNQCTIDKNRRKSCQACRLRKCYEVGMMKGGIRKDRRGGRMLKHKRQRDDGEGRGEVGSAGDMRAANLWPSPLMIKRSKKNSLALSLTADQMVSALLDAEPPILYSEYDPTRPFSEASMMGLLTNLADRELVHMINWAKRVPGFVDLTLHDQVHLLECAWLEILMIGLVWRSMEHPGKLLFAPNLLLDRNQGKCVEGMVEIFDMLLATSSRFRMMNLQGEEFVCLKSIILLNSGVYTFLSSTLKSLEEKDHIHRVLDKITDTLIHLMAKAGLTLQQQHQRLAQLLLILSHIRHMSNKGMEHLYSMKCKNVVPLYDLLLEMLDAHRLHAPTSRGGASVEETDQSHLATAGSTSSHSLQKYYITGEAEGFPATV
How it was run: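 Reporter-gene assay. […] controls beta-lactamase in HEK 293 GripTite cells; after 18 hrs with compound, CCF4 substrate is added for 2 hrs and fluorescence is read.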
Potency means the concentration at half of the fitted maximal effect.

**Q.** How did the Potency turn out when `CCc1cccc(CC)c1N(COC)C(=O)CCl` was run?
**A.** active: 158 nM [sample A] and inactive [sample B]

**Q.** Which Potency does the source give for `C=CC(N)=O` here?
**A.** inactive [sample A] and active: 15.8 µM [sample B] and inactive [sample C]

**Q.** How did the Potency turn out when `CCCCCCCCCc1ccc(O)cc1` was run?
**A.** active: 3.98 µM [sample A] and inactive [sample B]

**Q.** With `CC(C)(OO)c1ccccc1` as the molecule, how does the Potency read?
**A.** inactive [sample A] and active: 12.6 µM [sample B]

**Q.** `CCOCN(C(=O)CCl)c1c(C)cccc1CC` was tested. Which Potency did it give?
**A.** active: 708 nM [sample A] and inactive [sample B]
